# Measured values published in PMC4336329 (PLoS ONE, 2015).
# Hit rate of the full screen: of about 310,000 compounds, about 2,200 (0.71%) showed an effect of 50% or more. The effect is printed as a negative number. Some of the results follow.
# Biological target: human ether-à-go-go-related gene (hERG) potassium channel (human, UniProt Q12809)
# Experiment: primary screen, population patch clamp on CHO cells stably expressing hERG
# human ether-à-go-go-related gene (hERG) potassium channel, sequence (Q12809 whole entry, looked up): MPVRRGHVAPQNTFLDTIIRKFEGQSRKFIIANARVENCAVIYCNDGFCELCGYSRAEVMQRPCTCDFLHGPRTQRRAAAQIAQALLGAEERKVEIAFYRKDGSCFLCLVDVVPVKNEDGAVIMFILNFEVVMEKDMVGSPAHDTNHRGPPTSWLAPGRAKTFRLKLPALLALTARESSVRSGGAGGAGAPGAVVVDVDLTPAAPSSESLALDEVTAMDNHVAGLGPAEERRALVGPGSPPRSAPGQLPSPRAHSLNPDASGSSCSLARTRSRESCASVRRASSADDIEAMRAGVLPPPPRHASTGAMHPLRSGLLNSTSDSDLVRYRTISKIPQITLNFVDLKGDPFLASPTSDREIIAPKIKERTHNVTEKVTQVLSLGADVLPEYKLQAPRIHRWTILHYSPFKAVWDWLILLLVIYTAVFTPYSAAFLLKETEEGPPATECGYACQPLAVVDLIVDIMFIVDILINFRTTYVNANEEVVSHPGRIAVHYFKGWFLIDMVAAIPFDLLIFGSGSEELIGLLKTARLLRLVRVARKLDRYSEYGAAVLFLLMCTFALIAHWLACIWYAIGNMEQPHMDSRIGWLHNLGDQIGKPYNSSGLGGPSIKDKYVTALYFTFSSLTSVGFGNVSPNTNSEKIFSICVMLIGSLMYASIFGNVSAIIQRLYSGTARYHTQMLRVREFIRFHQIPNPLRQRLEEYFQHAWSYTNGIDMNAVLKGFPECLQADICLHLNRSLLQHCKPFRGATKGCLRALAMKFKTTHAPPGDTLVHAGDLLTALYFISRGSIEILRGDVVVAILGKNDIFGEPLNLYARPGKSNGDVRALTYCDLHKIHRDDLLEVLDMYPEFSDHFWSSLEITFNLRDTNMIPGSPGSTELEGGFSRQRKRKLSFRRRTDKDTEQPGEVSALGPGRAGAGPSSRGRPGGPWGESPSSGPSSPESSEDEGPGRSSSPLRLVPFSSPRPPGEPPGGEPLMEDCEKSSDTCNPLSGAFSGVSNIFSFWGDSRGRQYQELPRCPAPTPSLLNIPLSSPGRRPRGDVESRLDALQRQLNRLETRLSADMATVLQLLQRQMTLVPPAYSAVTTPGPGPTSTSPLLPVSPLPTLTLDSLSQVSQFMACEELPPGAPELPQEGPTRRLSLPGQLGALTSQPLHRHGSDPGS
row,SMILES,"hERG current change (%, negative = inhibition) at 1uM"
1,N#Cc1ccsc1NC(=O)COC(=O)CCCSc1nc2ccccc2s1,4.32%
2,Cc1ccc(NC(=S)N/N=C/c2ccc(OCCC(C)C)cc2)c(C)c1,2.34%
3,CCC(CC)c1nnc(NC(=O)c2ccco2)s1,11.8%
4,O=C(Cn1nnc(-c2ccccc2F)n1)Nc1ccc2c(c1)OCCO2,14.7%
5,CC1CN(C(=O)CSc2nnc(-c3cccs3)n2N)CC(C)O1 (stereo not drawn),5.36%
6,Oc1ccc(-c2csc(NCc3ccco3)n2)cc1,16.1%
7,Cc1ccc(-n2nc(C)c(/C=N/n3c(C)n[nH]c3=S)c2Cl)cc1,6.67%
8,COc1ccc(CCN2C(=NC(=O)CC(C)C)SC3CS(=O)(=O)CC32)cc1 (stereo not drawn),6.72%
9,CCCC(=O)Nc1ccc(C(=O)NNC(=O)c2cccs2)cc1,17.9%
10,O=C(Nc1nc(-c2cc(Cl)sc2Cl)cs1)c1cccs1,20.8%
11,COc1ccc(C(=O)Oc2c(CN3CCOCC3)cc(Cl)c3cccnc23)cc1,3.9%
12,COc1cccc(/C=c2\sc3nc(-c4cccs4)nn3c2=O)c1OC,12.4%
13,Cc1cc(NC(=O)CCC(=O)N(Cc2cccnc2)C(C(=O)NC(C)(C)C)c2ccccc2Cl)no1 (stereo not drawn),14.7%
14,O=C(CSc1nnc(SCc2ccccc2)s1)N/N=C/C=C/c1ccccc1[N+](=O)[O-],2.1%
15,Cc1cc(NC(=O)COC(=O)COc2ccc(Cl)cc2C)c([N+](=O)[O-])cc1C,-2.59%
16,Clc1ccc(-c2nnc3n2CCCCS3)cc1,3.51%
17,COC(=O)CCCCCCCCC(O)CN1CCCCC1.Cl (stereo not drawn),15.2%
18,Cc1cc(C)c(S(=O)(=O)N2CCOC2CNC(=O)C(=O)NCc2ccco2)c(C)c1 (stereo not drawn),2.74%
19,O=C1CCCc2nc(N3CCN(C(=O)c4ccco4)CC3)ncc21,14.6%
20,CC(C)(C)NC(=O)N1CCN(c2nc(-c3ccccc3)ns2)CC1,11.9%
21,O=C1[C@@H]2[C@H](C(=O)N1n1cnnc1)[C@H]1C=C[C@@H]2C1,16.1%
22,O=C1N(Cc2ccccc2)c2ccccc2C12OCCO2,11.7%
23,CCn1cc(/C=C(\NC(=O)c2ccccc2OC)C(=O)NCCCn2ccnc2)c2ccccc21,9.06%

row,SMILES,"hERG current change (%, negative = inhibition) at 1uM"
1,Cc1nonc1NC(=O)CSc1ccc(-c2ccccc2)nn1,-7.67%
2,Cc1cc(C)c(C#N)c(SCCS(=O)(=O)Cc2ccc(Cl)cc2)n1,3.36%
3,Cc1ccc(-c2csc3nc(C)n(N)c(=O)c23)o1,18.8%
4,O=C(COC(=O)CCc1ccc(S(=O)(=O)N2CCOCC2)cc1)NCc1ccccc1Cl,-2.39%
5,Cc1nc(NC(=O)CN(C)S(=O)(=O)c2ccc(Cl)cc2)sc1C,10.2%
6,CSc1ccccc1NC(=O)c1noc(C)c1[N+](=O)[O-],-1.6%
7,COCC1CCN(Cc2c(C(=O)N3CCN(C4CCCCC4)CC3)nc3ccccn23)C1 (stereo not drawn),15.3%
8,NNC(=O)CSc1c(-c2cccs2)[nH]c2ccccc12,7.15%
9,CCOc1ccc2[nH]c(=O)c(CN(CC3COCCO3)C(=O)c3ccco3)cc2c1 (stereo not drawn),5.28%
10,CC(=O)N1c2ccc(S(=O)(=O)NCC3CCC(C(=O)N4CC(C)CC(C)C4)CC3)cc2CC1C (stereo not drawn),15.4%
11,Cc1nn(C)cc1[C@@H]1C[C@H]2CN(Cc3cccc(Cl)c3)C(=O)[C@]23CCCN13,-3.77%
12,Cc1cc(NC(=O)CSc2nc3ccccc3c(=O)n2Cc2ccccc2)no1,11.5%
13,CCOC(=O)c1c(NC(=O)CCN2CCOCC2)sc2c1CC(C)(C)OC2,-10.6%
14,Cn1cc(C(=O)NC2C3CC4CC(C3)CC2C4)cn1 (stereo not drawn),13.6%
15,CCOc1ccc(NC(=O)CN(C)C(=O)c2ccccc2OCCOc2ccccc2)cc1OCC,2.13%
16,COc1ccccc1CCn1c(N)c(C#N)c2nc3ccccc3nc21,1.4%
17,COc1ccc(CC(=O)OCC(=O)NC2CCCCC2)cc1,-5.43%
18,CCOc1ccc(NC(=O)NNC(=O)COc2ccc3ccccc3c2)cc1,13.5%
19,COc1cc(C(=O)Oc2cccc(/C=N/NC(=O)c3cc(C)[nH]n3)c2)cc(OC)c1OC,16.6%
20,Cc1ccc(-c2cc(C(=O)N3CCc4ccccc4C3)[nH]n2)cc1C,10.4%
21,COc1ccc(C2CC(C(F)(F)F)n3ncc(C(=O)NCC4CCCO4)c3N2)cc1OC (stereo not drawn),2.65%
22,CC(=O)N1CCc2c(sc3c2c(=O)n(-c2ccccc2)c(=O)n3CC(=O)NCC2CCCO2)C1 (stereo not drawn),4.41%
